What follows are compounds tested on MLKL phosphorylation, HT29-L23 human colorectal adenocarcinoma cells (assay: cells). Conditions: read-out: pMLKL HCS Cell Assay (IC50, uM).

Row | Structure (SMILES) | IC50
1 | COc1ncc(-c2cc(CN3CCC(F)(F)CC3)c3c(N)ncnn23)cc1C(=O)N[C@@H]1CN(C(=O)c2ccccc2F)C[C@@H]1F [Example 1626, 5-{4-amino-5-[(4,4-difluoropiperidin-1-yl)methyl]pyrrolo[2,1-f][1,2,4]triazin-7-yl}-N-[(3R,4S)-4-fluoro-1-(2-fluorobenzoyl)pyrrolidin-3-yl]-2-methoxypyridine-3-carboxamide] | 0.00091 µM
2 | COc1ncc(-c2cc(CN3CCC(F)(F)CC3)c3c(N)ncnn23)cc1C(=O)N[C@@H]1CN(C(=O)c2c(F)cccc2F)C[C@@H]1F [Example 1242, 5-{4-amino-5-[(4,4-difluoropiperidin-1-yl)methyl]pyrrolo[2,1-f][1,2,4]triazin-7-yl}-N-[(3R,4S)-1-(2,6-difluorobenzoyl)-4-fluoropyrrolidin-3-yl]-2-methoxypyridine-3-carboxamide] | 0.00044 µM
3 | Cc1cc(F)c(-c2cc(CN3CCC(F)(F)CC3)c3c(N)ncnn23)cc1C(=O)N[C@@H]1CN(C(=O)CC(C)C)C[C@@H]1F [Example 1659, 5-{4-amino-5-[(4,4-difIuoropiperidin-1-yl)methyl]pyrrolo[2,1-f][1,2,4]triazin-7-yl}-4-fluoro-N-[(3R,4S)-4-fluoro-1-(3-methylbutanoyl)pyrrolidin-3-yl]-2-methylbenzamide] | 0.00048 µM
4 | COc1ncc(-c2cc(C(F)(F)F)c3c(N)ncnn23)cc1C(=O)N[C@@H]1CN(C(=O)C2(C)COC2)C[C@@H]1F [Example 329, 5-[4-amino-5-(trifluoromethyl)pyrrolo[2,1-f][1,2,4]triazin-7-yl]-N-[(3R,4S)-4-fluoro-1-(3-methyloxetane-3-carbonyl)pyrrolidin-3-yl]-2-methoxypyridine-3-carboxamide] | 0.194 µM
5 | Cc1cc(F)c(-c2cc(C(F)(F)F)c3c(N)ncnn23)cc1C(=O)N[C@@H]1CN(C(=O)c2c(F)cccc2Cl)C[C@@H]1F [Example 825, 5-[4-amino-5-(trifluoromethyl)pyrrolo[2,1-f][1,2,4]triazin-7-yl]-N-[(3R,4S)-1-(2-chloro-6-fluorobenzoyl)-4-fluoropyrrolidin-3-yl]-4-fluoro-2-methylbenzamide] | 0.0083 µM
6 | COc1ncc(-c2cc(C(F)(F)F)c3c(N)ncnn23)cc1C(=O)N[C@H]1CCN(C(=O)c2ccc(C)cc2)C1 [Example 12, 5-[4-amino-5-(trifluoromethyl)pyrrolo[2,1-f][1,2,4]triazin-7-yl]-2-methoxy-N-[(3S)-1-(4-methylbenzoyl)pyrrolidin-3-yl]pyridine-3-carboxamide] | 0.401 µM
7 | COc1ncc(-c2ccc3c(N)nc(F)nn23)cc1C(=O)N[C@@H]1CN(C(=O)[C@@](C)(O)C(F)(F)F)C[C@@H]1F [Example 1702, 5-(4-amino-2-fluoropyrrolo[2,1-f][1,2,4]triazin-7-yl)-N-((3R,4S)-4-fluoro-1-((R)-3,3,3-trifluoro-2-hydroxy-2-methylpropanoyl)pyrrolidin-3-yl)-2-methoxynicotinamide] | 0.294 µM
8 | CC(C)CC(=O)N1C[C@H](F)[C@H](NC(=O)c2cc(-c3cc(C(F)(F)F)c4c(N)ncnn34)ccc2CF)C1 [Example 909, 5-[4-amino-5-(trifluoromethyl)pyrrolo[2,1-f][1,2,4]triazin-7-yl][(3R,4S)-4-fluoro-1-(3-methylbutanoyl)pyrrolidin-3-yl]-2-(fluoromethyl)benzamide] | 0.0056 µM
9 | COc1cc(F)c(-c2cc(C(F)(F)F)c3c(N)ncnn23)cc1C(=O)N[C@@H]1CN(C(=O)CC(C)(O)C(F)(F)F)C[C@@H]1F (stereo partly drawn) [Example 879, 5-[4-amino-5-(trifluoromethyl)pyrrolo[2,1-f][1,2,4]triazin-7-yl]-4-fluoro-N-[(3R,4S)-4-fluoro-1-(4,4,4-trifluoro-3-hydroxy-3-methylbutanoyl)pyrrolidin-3-yl]-2-methoxybenzamide] | 0.0046 µM
10 | [2H]C([2H])([2H])Oc1nc(C)c(-c2cc(C(F)(F)F)c3c(N)ncnn23)cc1C(=O)N[C@@H]1CN(C(=O)C2CC(F)C2)C[C@@H]1F (stereo partly drawn) [Example 518, 5-[4-amino-5-(trifluoromethyl)pyrrolo[2,1-f][1,2,4]triazin-7-yl]-N-[(3R,4S)-4-fluoro-1-(3-fluorocyclobutanecarbonyl)pyrrolidin-3-yl]-2-(Deutero)methoxy-6-methylpyridine-3-carboxamide] | 0.022 µM
11 | CC(C)(C(=O)N1C[C@H](F)[C@H](NC(=O)c2cccc(-c3cc(CN4CC(F)(F)C4)c4c(N)ncnn34)c2)C1)C(F)(F)F [Example 1176, 3-{4-amino-5-[(3,3-difluoroazetidin-1-yl)methyl]pyrrolo[2,1-f][1,2,4]triazin-7-yl}-N-[(3R,4S)-4-fluoro-1-(3,3,3-trifluoro-2,2-dimethylpropanoyl)pyrrolidin-3-yl]benzamide] | 0.0014 µM
12 | Cc1ncc(-c2cc(C(F)(F)F)c3c(N)ncnn23)cc1C(=O)NCCN1CCOCC1c1ccccc1 (stereo not drawn) [Example 1721, 5-(4-amino-5-(trifluoromethyl)pyrrolo[2,1-f][1,2,4]triazin-7-yl)-2-methyl-N-(2-(3-phenylmorpholino)ethyl)nicotinamide] | 0.042 µM
13 | Cc1ccc(-c2cc(C(F)(F)F)c3c(N)ncnn23)cc1C(=O)N[C@@H]1CN(C(=O)c2cc(C#N)ccc2F)C[C@@H]1F [Example 1035, 5-[4-amino-5-(trifluoromethyl)pyrrolo[2,1-f][1,2,4]triazin-7-yl]-N-[(3R,4S)-1-(5-cyano-2-fluorobenzoyl)-4-fluoropyrrolidin-3-yl]-2-methylbenzamide] | 0.0032 µM
14 | Cc1ccc(-c2cc(C(F)(F)F)c3c(N)ncnn23)cc1C(=O)N[C@@H]1CN(C(=O)C2CC(F)C2)C[C@@H]1F (stereo partly drawn) [Example 997, 5-[4-amino-5-(trifluoromethyl)pyrrolo[2,1-f][1,2,4]triazin-7-yl]-N-[(3R,4S)-4-fluoro-1-(3-fluorocyclobutanecarbonyl)pyrrolidin-3-yl]-2-methylbenzamide] | 0.0014 µM
15 | COc1ncc(-c2cc(C3CC3)c3c(N)ncnn23)cc1C(=O)N[C@@H]1CN(C(=O)C2CC(F)(F)C2)C[C@@H]1F [Example 1566, 5-{4-amino-5-cyclopropylpyrrolo[2,1-f][1,2,4]triazin-7-yl}-N-[(3R,4S)-1-(3,3-difluorocyclobutanecarbonyl)-4-fluoropyrrolidin-3-yl]-2-methoxypyridine-3-carboxamide] | 0.0089 µM
16 | COc1ncc(-c2cc(C(F)(F)F)c3c(N)ncnn23)cc1C(=O)N[C@@H]1CN(C(=O)C(C)(C)CNC(=O)OC(C)(C)C)C[C@@H]1F [Example 1679, tert-butyl (3-((3R,4S)-3-(5-(4-amino-5-(trifluoromethyl)pyrrolo[2,1-f][1,2,4]triazin-7-yl)-2-methoxynicotinamido)-4-fluoropyrrolidin-1-yl)-2,2-dimethyl-3-oxopropyl)carbamate] | 0.156 µM
17 | COc1ncc(-c2cc(C(F)(F)F)c3c(N)ncnn23)cc1C(=O)N[C@@H]1CN(C(=O)C2CCC(F)(F)C2)C[C@@H]1F (stereo partly drawn) [Example 34, 5-[4-amino-5-(trifluoromethyl)pyrrolo[2,1-f][1,2,4]triazin-7-yl]-N-[1-(3,3-difluorocyclopentanecarbonyl)-(3R,4S)4-fluoropyrrolidin-3-yl]-2-methoxypyridine-3-carboxamide] | 0.028 µM
18 | COc1ncc(-c2c(C#N)cc3c(N)ncnn23)cc1C(=O)N[C@@H]1CN(C(=O)C2CCC(F)(F)CC2)C[C@@H]1F [Example 555, 5-(4-amino-6-cyanopyrrolo[2,1-f][1,2,4]triazin-7-yl)-N-((3R,4S)-1-(4,4-difluorocyclohexane-1-carbonyl)-4-fluoropyrrolidin-3-yl)-2-methoxynicotinamide] | 1.54 µM
19 | COc1ncc(-c2cc(C(F)(F)F)c3c(N)ncnn23)cc1C(=O)NC1CN(Cc2nc3ccccc3o2)CC1F (racemic) [Example 201, 5-[4-amino-5-(trifluoromethyl)pyrrolo[2,1-f][1,2,4]triazin-7-yl]-N-{1-[(1,3-benzoxazol-2-yl)methyl]-4-fluoropyrrolidin-3-yl}-2-methoxypyridine-3-carboxamide] | 0.016 µM
20 | COc1ncc(-c2cc(C(F)(F)F)c3c(N)ncnn23)cc1C(=O)N[C@@H]1CN(C(C)c2cc(F)cc(F)c2O)C[C@@H]1F (stereo partly drawn) [Example 1393, 5-[4-amino-5-(trifluoromethyl)-pyrrolo[2,1-f][1,2,4]triazin-7-yl]-N-[(3R,4S)-1-[1-(3,5-difluoro-2-hydroxyphenyl)-ethyl]-4-fluoropyrrolidin-3-yl]-2-methoxypyridine-3-carboxamide] | 0.018 µM
21 | COc1cc(F)c(-c2cc(C(F)(F)F)c3c(N)ncnn23)cc1C(=O)N[C@@H]1CN(C(=O)c2ccc(F)cc2)C[C@@H]1F [Example 873, 5-[4-amino-5-(trifluoromethyl)pyrrolo[2,1-f][1,2,4]triazin-7-yl]-4-fluoro-N-[(3R,4S)-4-fluoro-1-(4-fluorobenzoyl)pyrrolidin-3-yl]-2-methoxybenzamide] | 0.0086 µM
22 | Nc1ncnn2c(-c3cccc(C(=O)N[C@@H]4CN(C(=O)C5CCC5)C[C@@H]4F)c3)cc(CN3CC(F)(F)C3)c12 [Example 1168, 3-{4-amino-5-[(3,3-difluoroazetidin-1-yl)methyl]pyrrolo[2,1-f][1,2,4]triazin-7-yl}-N-[(3R,4S)-1-cyclobutanecarbonyl-4-fluoropyrrolidin-3-yl]benzamide] | 0.00037 µM
23 | [2H]C([2H])([2H])Oc1ncc(-c2cc(CN3CC(F)(F)C3)c3c(N)ncnn23)cc1C(=O)N[C@@H]1CN(C(=O)c2ccc(F)cc2)C[C@@H]1F [Example 1275, 5-{4-amino-5-[(3,3-difluoroazetidin-1-yl)methyl]pyrrolo[2,1-f][1,2,4]triazin-7-yl}-N-[(3R,4S)-4-fluoro-1-(4-fluorobenzoyl)pyrrolidin-3-yl]-2-(methoxy-d3)nicotinamide] | 0.00098 µM
24 | COc1ncc(-c2cc(C(F)(F)F)c3c(N)ncnn23)cc1C(=O)NC1CN(CCC(C(F)(F)F)C(F)(F)F)CC1F (racemic) [Example 193, 5-[4-amino-5-(trifluoromethyl)pyrrolo[2,1-f][1,2,4]triazin-7-yl]-N-{4-fluoro-1-[4,4,4-trifluoro-3-(trifluoromethyl)butyl]pyrrolidin-3-yl}-2-methoxypyridine-3-carboxamide] | 0.066 µM

From US11618753B2 (priority 2018, dated 2023)
